From PubChem BioAssay AID1508624 (National Center for Advancing Translational Sciences (NCATS), 2021)
Screen size: about 48,000 compounds; about 120 (0.25%) were called active. Inconclusive results (about 4%) are left out. The call rests on the fitted dose curve; in most records, active means well fitted activation curve with a large enough effect; inconclusive means small, poorly fitted or top-dose-only effect, or another doubt; inactive means no such curve, though single readings can be large or run the other way. The list shows a part of the results.

assay: Primary qHTS for Identification of Small Molecule Activators of Huntingtin-Antisense Promoter Activity; details: HEK293 HTT-AS promoter firefly luciferase reporter (activity 0% = vehicle and -100% = no light), 24 h; series mostly up to 57.5 µM; activity change, positive = activation: at the top concentration; further: nearly all actives have a fitted effect of over 55% in size
Outline: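 Firefly luciferase readout (Dual-Glo, 10 min RT) after 24 h, 37 °C compound exposure (final up to 57.5 uM) of HEK293 reporter cells cultured 24 h beforehand; PTC124 at 50 uM final as control inhibitor; activity scaled vehicle 0%, zero RLU -100%.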

Activity change, positive = activation, inactive:
CCOc1cccc(C2c3[nH]c4ccccc4c3CCN2C(=O)CCC2CCCC2)c1 (stereo unspecified) -31.1%
Fc1cc(F)c2ncc3c(-c4ccccc4)nn(-c4cccc(Cl)c4)c3c2c1 -13%
CC(C)OCCCNC(=O)C(=O)Nc1ccc2nc3n(c(=O)c2c1)CCCCC3 4.43%
Cc1cccc(Cn2c(=O)n(Cc3ccccc3)c(=O)c3oc4ccccc4c32)c1 -11.8%
Cc1ccccc1NC(=O)C1CCN(C(=O)c2cnn(-c3ccccc3)c2-n2cccc2)CC1 -19.7%
Cc1ccc(Sc2ccc(N3CCC(C(=O)Nc4ccc(C)c(F)c4)CC3)nn2)cc1 -4.19%
COc1cc(NC(=O)N(Cc2ccco2)C2CCN(C(C)=O)CC2)cc(OC)c1OC -7.18%
Cc1cccc(-c2nc3nc(C)cc(NCc4ccccc4Cl)n3n2)c1 -26.3%
COc1ccc(-c2cc(C(F)(F)F)nc(-n3nc(C(F)(F)F)cc3C)n2)cc1 9.1%
CC1CCN(c2oc(-c3ccc(COc4ccccc4)o3)nc2C#N)CC1 -25.7%
CCc1ccc(-n2c(N3CCN(c4cccc(Cl)c4)CC3)nc3ccccc3c2=O)cc1 -22.9%
Cc1ccc(-n2c(SCC(=O)NCc3ccccc3)nc3n[nH]c(C)c3c2=N)cc1Cl -28.2%
O=C(NCC(c1cccs1)S(=O)(=O)c1cccs1)c1ccc(Cl)cc1 (stereo unspecified) -21.3%
Nc1nnc(SCC(=O)Nc2ccccc2)s1 15.1%
COc1cccc(NC(=O)Cn2c(=O)n(CC(=O)NCc3ccc(C)cc3)c(=O)c3sccc32)c1 -39.6%
Cc1ccc2nc(-c3c[nH]c4ccccc34)c(Nc3ccccc3C)n2c1 4.2%
Cc1ccc(C(c2ccccc2)c2c(C)[nH]c3ccccc23)s1 (stereo unspecified) -33.5%
Cc1cc(C)c(NC(=O)CN2C(=O)c3cccnc3Oc3ccc(C)cc32)c(C)c1 -12.8%
Cc1ccc(-c2cc(NC(=O)COc3ccc(Cl)c(C)c3)on2)cc1 32.9%
CCN1CCN(C(=O)Cn2ncc3c4ccccc4n(Cc4ccccc4)c3c2=O)CC1 -6.98%
Cc1ccc(/C=C/C(=O)Nc2ccc(S(N)(=O)=O)cc2)o1 10.7%
Cc1cc(C)c(Cn2c3ccccc3c3cnn(CC(=O)NCc4ccccn4)c(=O)c32)c(C)c1 -31.9%
Cn1cncc1[C@@](N)(c1ccc(Cl)cc1)c1ccc2c(c1)c(-c1cccc(Cl)c1)cc(=O)n2C -36.4%
Cc1nnc(SCC2=C(C(=O)O)N3C(=O)[C@@H](NC(=O)Cn4cnnn4)[C@H]3SC2)s1 1.98%
O=C(CCS(=O)(=O)c1ccc(Br)cc1)Nc1ccc(Cl)c(C(F)(F)F)c1 -39.6%
COc1ccccc1CCNC(=O)C(=O)NCC(c1cccs1)S(=O)(=O)c1ccccc1 (stereo unspecified) -28.8%
CCOC(=O)c1cccc(NC(=O)c2cn(-c3cccc(OC)c3)c(=O)c3ccccc23)c1 -9.98%
CCCCN(C)CCCNC(=O)Cn1ncc2c3ccccc3n(Cc3ccccc3F)c2c1=O -12.4%
COc1ccc(NC(=O)Cn2c(=O)oc3cc(S(=O)(=O)NCc4ccccc4)ccc32)c(OC)c1 -31%
COc1ccc(NS(=O)(=O)c2cc3c(cc2C)NC(=O)CO3)c(OC)c1 -13%
O=C(CSC1=Nc2ccccc2C2=NC(Cc3ccccc3)C(=O)N12)Nc1ccccc1C(F)(F)F (stereo unspecified) 0.224%
COc1cc(NC(=O)C2CCN(S(=O)(=O)c3ccc4c(c3)oc(=O)n4C)CC2)cc(OC)c1 -18.5%
Cc1cn2c(=O)cc(COc3ccccc3NC(=O)c3ccc(C(C)(C)C)cc3)nc2s1 12.6%
Cc1cccc(CNC(=O)c2oc3c(c2C)-c2nn(Cc4cccc(Cl)c4)cc2CC3)c1 -21.4%
CCOc1ccc(CN2C(=O)c3ccccc3Sc3ccc(C(=O)NC)cc32)cc1 -29.3%
COC(=O)c1ccc2c(c1)N(CC(=O)Nc1cccc(Cl)c1C)C(=O)c1ccccc1S2 -6.56%
CC(C)NC(=O)Cn1c(=O)nc(-c2ccccc2F)c2cc(Cl)ccc21 -9.36%
CC(C)c1cnc2c(c1SCc1cccc(F)c1)c(=O)n(C)c(=O)n2C -22.3%
Cc1ccc(-c2nc3nc(C)cc(C)n3c2Nc2ccc3c(c2)OCCO3)cc1 18.1%
CC(=O)N1CCc2cc(Br)cc(S(=O)(=O)N3CCC(C)CC3)c21 -18.6%
CCOc1ccc(NC(=O)Cn2c(=O)n(Cc3nc(-c4ccccc4)no3)c(=O)c3cc4c(cc32)OCO4)cc1 -14.4%
CC(=O)c1ccc(NC(=O)c2nc(-c3ccccc3)n(-c3ccc(Cl)cc3)n2)cc1 -24.5%
CCOC(=O)c1cc2c(=O)n3ccccc3nc2n(CCOC)c1=NC(=O)C(C)(C)Oc1ccc(Cl)cc1 -20.6%
Cc1nc2nc(NC(=O)C(C)(C)C)[nH]n2c(=O)c1Cc1ccccc1 12%
Cc1ccc(Cn2ccn(CC(=O)Nc3c(C)cc(C)cc3C)c(=O)c2=O)cc1 -15.9%
O=c1[nH]c(=O)n([C@H]2C[C@H](O)[C@@H](CO)O2)cc1C(F)(F)F -24.5%
CC(C)(C)OC(=O)N1CCC(c2c(C(=O)N3CCN(C(=O)c4ccco4)CC3)cnn2-c2cccc(Cl)c2)CC1 -27.8%
CC(=O)c1ccc(NC(=O)c2nc(-c3ccc(Cl)cc3)n3c2CCCCC3)cc1 -19.5%
COc1cccc(OCC(=O)NC2CC(=O)N(c3cccc(OC)c3)C2)c1 (stereo unspecified) 3.91%
COC(=O)c1cc(NC(=O)CC2C(=O)OCCN2Cc2ccccc2)cc(C(=O)OC)c1 (stereo unspecified) -6.18%
Cc1ccccc1CSc1nc2c(sc3ccccc32)c(=O)n1CCCC(=O)NCCCOC(C)C -1.13%
CS(=O)(=O)CC[C@@H](C(=O)NCCc1ccccc1)N1Cc2ccccc2C1=O -4.47%
Cc1cc(C)c2c(=O)cc(C(=O)Nc3sc4c(c3C(=O)NCc3ccco3)CCCC4)oc2c1 -2.08%
Cc1cccc(OCC(=O)N2CCC(c3nc4ccccc4o3)CC2)c1C -13.7%
COc1ccc(NC(=O)Cn2c(=O)c3ccccc3n3nncc23)cc1Cl 2.29%
NC(=O)N1c2ccccc2CC(=O)c2ccccc21
CN(c1nnc(NC(=O)Nc2ccccc2C(F)(F)F)s1)C1CCCCC1 18.7%
COCc1cc(C)nc2c1C(=O)NC(c1ccc(NC(C)=O)cc1)N2Cc1ccccc1 (stereo unspecified) -9.94%
CCc1ccc(OC(=O)CSc2nnc(-c3ccc(OC)c(OC)c3)o2)cc1 -22.5%
NC1=NCC2c3ccccc3Cc3ccccc3N12 (stereo unspecified) -2.51%
Cc1c2cnn(CC(=O)NC(C)C)c(=O)c2c(C)n1Cc1cccc(Cl)c1 -16.3%
COc1ccc(/C=C/c2nc(C#N)c(NCc3ccc(C)cc3)o2)cc1OC -21.5%
O=C(O)CCC(=O)O -1.93%
O=C(NCCc1ccccc1)c1ccc2c(c1)N(Cc1ccc(F)cc1Cl)C(=O)CS2 -14.4%
Cc1ccc(NC(=O)N2CCC3(CC2)Oc2ccccc2C(=O)N3Cc2ccc(F)cc2)cc1 21.1%
CC(Oc1ccccc1)C(=O)Nc1cccc(-c2cn3cccnc3n2)c1 (stereo unspecified) -0.829%
CCOc1nc(-c2ccccc2)ccc1-c1noc(-c2ccc(C)cc2)n1 -9.27%
CCOc1ccc(NC(=O)CC2C(=O)N(c3ccccc3)C(=O)N2CCc2sccc2C)cc1 (stereo unspecified) 4.93%
O=C(Cn1cc(SCc2cccc(Cl)c2)c2ccccc21)N1CCCCC1 7.55%
Cc1c(C(=O)OC2CCC(C)CC2)[nH]c2c1C(=O)CC(c1ccc(N(C)C)cc1)C2 (stereo unspecified) -14.4%
COc1ccc(S(=O)(=O)c2c(C(=O)c3ccc(C)c(C)c3)cnc3ccc(C)cc23)cc1 -35%
Fc1ccc(-c2cc(-c3nc(-c4ccc(Cl)cc4)no3)[nH]n2)cc1 -6.53%
COc1cccc(/C=C/c2nc(C#N)c(NC3CCCCC3)o2)c1 -0.322%
CSc1ccc(CCNC(=O)Cn2c(C)c3cnn(-c4ccccc4)c(=O)c3c2C)cc1 -11.1%
COc1cccc(-n2c(=O)c3sc4ccccc4c3n(Cc3c(F)cccc3Cl)c2=O)c1 -3.42%
Cc1ccc(-n2nc(CO)c(C(=O)NCCC(C)C)n2)cc1C -28.7%
CCc1cccc(NC(=O)CSc2nnc(-c3cc4occc4n3C)n2-c2ccccc2C)c1 -21.1%
O=C(NCc1ccncc1)C12C[C@H]3C[C@@H](C1)CC(c1ccc(Cl)cc1)(C3)C2 -15.8%
Cc1ccc(CNC(=O)c2ccc(Cn3c(SCc4ccc(F)cc4)nc4cccnc43)cc2)o1 7.57%
O=c1n(Cc2ccc(F)cc2)c2ccccc2c2nc(-c3ccccc3)nn12 -10.3%
CCOC(=O)c1c(C)oc2nc(C)nc(NCC3CCN(Cc4cc(C)ccc4C)CC3)c12 -8.91%
Cc1ccc(N2C(=O)C(CC(=O)Nc3cccc(F)c3)N(CCc3ccccc3F)C2=O)cc1 (stereo unspecified) -2.18%
CCCN(C(=O)CCc1nc(-c2ccc(C)cc2)no1)c1ccc(OCC)cc1 -35.5%
Cc1ccc(Nc2c3c(nc4nncn24)CCC3)c(C)c1 -18.6%
Cc1ccc(NC(=O)CN2C(=O)c3cccnc3Sc3ccccc32)c(Br)c1 -12%
COc1ccc2c(c1)-c1nc(NC(=O)c3cccc(Br)c3)sc1CC2 -19.8%
Cc1ccc(NC(=O)Cn2nnc(-c3ccccc3)n2)c(C)c1 -3.48%
CCOC(=O)c1c(NC(=O)c2cc(-c3cccc(Cl)c3)on2)sc(C(C)=O)c1C 4.16%
O=C(C1COc2ccccc2O1)N(Cc1cccnc1)c1nc2c(F)cccc2s1 (stereo unspecified) 17.8%
CC1CCN(S(=O)(=O)c2cc(C(=O)N3CCN(c4cccc(Cl)c4)CC3)n(C)c2)CC1 -36.2%
COc1ccc(N(CC(=O)N2CCc3ccccc3C2)S(=O)(=O)c2ccccc2)cc1 -12.9%
CCOc1ccc(S(=O)(=O)c2cn(CC)c3ccc(F)cc3c2=O)cc1 0.086%
CCOC(=O)c1nnn(C(CC)C(=O)Nc2ccc(F)cc2)c1C(=O)OCC (stereo unspecified) -18.8%
COc1ccccc1C1C(C(=O)N2CCCCC2)=C(C)Nc2nc3ccccc3n21 (stereo unspecified) -12.2%
CCOc1ccc(C(=O)OCc2cc(=O)n3nc(C4CC4)sc3n2)cc1 -10.8%
COc1cc(Cl)c(C)cc1NC(=O)c1cc2c(=O)oc3ccccc3c2s1 -4.47%
